About 4,300 (8.3%) of roughly 52,000 compounds were called active. No stated cut-off is given here; in the data, active means survival mostly below about 52% (no sharp cut-off); inactive means mostly above about 56%. This is one part of the list.

The experiment concerns DeltatarO mutant. Nature of the experiment: S. aureus survival, RN4220 and DeltatarO strains – OD600, teichoic acid synthesis inhibitors, primary screen (AID 463173). The following applies: S. aureus RN4220 wild type/DeltatarO growth, OD600, 18 h, hits give low values, screened at 18.75 µg/mL (by protocol).
For `CCOC(=O)c1cccc(NC(=O)c2cc(C)nc3c2c(C)nn3-c2ccc(C)cc2)c1`, the survival was inactive: 39%.

With `COc1cc(Nc2nc3ccc(Cl)cc3nc2-n2nc(C)cc2C)cc(OC)c1`, the survival was inactive: 66%.

For the compound `O=C(O)c1c2c(nc3ccccc13)-c1ccccc1CC2`, the survival is inactive: 85%.

With `O=C(CN1C(=O)COc2ccc(S(=O)(=O)NC3CCCC3)cc21)NCc1ccccc1Cl`, the survival was inactive: 80%.

Regarding `O=C(O)C(F)(F)C12OC3C4C5CC(C6C5C3C61)C42` (stereo unspecified), the survival is inactive: 72%.

Regarding `CC1CN(C(=O)N2CCC(C(=O)NCc3ccccc3F)CC2)c2cc(Cl)ccc2O1` (stereo unspecified), the survival is inactive: 60%.

Consider `COc1ccccc1N1CCN(C(=O)Cn2c(=O)nc(-c3ccccc3)c3ccccc32)CC1`, for which the survival is inactive: 94%.

`CCOc1ccc(NC(=O)C(C)n2c(=O)cc(-c3ccccc3)c3c(C)nn(C)c32)cc1` (stereo unspecified): the survival was inactive: 96%.

Consider `COc1cccc(NC(=O)N(Cc2cc3ccc(C)cc3n3nnnc23)CC2CCCO2)c1` (stereo unspecified), for which the survival was inactive: 103%.

On to `CCCc1nc(=S)c2ccccc2[nH]1`, for which the survival is inactive: 61%.

Regarding `Cc1ccccc1OCCSc1nnc(-c2cccs2)o1`, the survival was inactive: 106%.

Consider `CCC(C(=O)NCCC(C)C)N(C(=O)Cn1nnc(-c2ccc(C)cc2)n1)c1cccc(O)c1` (stereo unspecified), for which the survival was active: 37%.

In the case of `Cc1ccc(NC(=O)Cn2c(=O)n(CCC(C)C)c(=O)c3cccnc32)cc1C`, the survival is inactive: 70%.

In the case of `COC(=O)C1(CO)NC(c2ccccc2F)C2C(=O)N(c3ccccc3)C(=O)C21` (stereo unspecified), the survival is inactive: 86%.

On to `O=C(Cn1nnc(-c2cccnc2)n1)NCC1CCCO1` (stereo unspecified), for which the survival was inactive: 82%.

Turning to `COc1ccc(Cl)cc1NC(=O)Cn1c(=O)n(Cc2ccc(F)cc2)c(=O)c2cccnc21`, the survival is inactive: 64%.

Turning to `CC(=O)N1CCN(CC(O)COc2ccc(Br)cc2)CC1` (stereo unspecified), the survival is inactive: 89%.

Take `O=C(N/N=C1/CSC(=O)N1Cc1cccs1)c1cccs1`: the survival is inactive: 75%.

For `CCN(CC)CCNC(=O)c1cc2c(-c3cccc(OC)c3)nn(C)c2s1`, the survival is inactive: 147%.

With `Cc1ccc(C(=O)N2CCN(CCc3ccncc3)CC2)cc1`, the survival was inactive: 81%.

Consider `CCOc1ccccc1NC(=O)Cn1c(=O)n(CCCC(=O)NCc2ccc(C)cc2)c(=O)c2ccccc21`, for which the survival is inactive: 78%.

Consider `CCOC(=O)C1=C(SCC)c2cc3c(n2C1=O)CCCC3`, for which the survival is inactive: 83%.

In the case of `Cc1cccc2sc(N(Cc3cccnc3)C(=O)c3ccco3)nc12`, the survival was inactive: 83%.

Consider `COc1ccccc1OCC(=O)NCCS(=O)(=O)N1CCN(c2ccccc2OC)CC1`, for which the survival is inactive: 96%.

On to `Cc1ccc2[nH]cc(C(c3ccccc3)c3ccc(Cl)s3)c2c1` (stereo unspecified), for which the survival was active: 10%.

`Cc1nn(C(C)C(=O)NCc2ccco2)c(=O)c2nn(-c3ccccc3)c(C)c12` (stereo unspecified): the survival was active: 37%.

For the origin of these results see PubChem BioAssay AID463173 (ICCB-Longwood Screening Facility, Harvard Medical School, 2010).
